# Fewer than 10 of roughly 340,000 compounds were called active. The inconclusive results got no clear call from the source; some entries with a clear call stand among them for comparison. The call rests on the fitted dose curve; in most records, active means well fitted inhibition curve with a large enough effect in the main read-out, with a control signal flat (not every such curve was filed as active); inconclusive means small, poorly fitted or top-dose-only effect, or effect the other way, or a change in a side signal; inactive means no such curve, though single readings can be large or run the other way. A potency beside an inconclusive call is a rough fit, not a confirmed value. A note “side channel” means that the fit belongs to a control or component signal, not to the main read-out.
# Biological target: Tumor susceptibility gene 101 protein (Homo sapiens) (UniProt Q99816)
# UniProt Q99816, sequence (Q99816 whole entry, looked up): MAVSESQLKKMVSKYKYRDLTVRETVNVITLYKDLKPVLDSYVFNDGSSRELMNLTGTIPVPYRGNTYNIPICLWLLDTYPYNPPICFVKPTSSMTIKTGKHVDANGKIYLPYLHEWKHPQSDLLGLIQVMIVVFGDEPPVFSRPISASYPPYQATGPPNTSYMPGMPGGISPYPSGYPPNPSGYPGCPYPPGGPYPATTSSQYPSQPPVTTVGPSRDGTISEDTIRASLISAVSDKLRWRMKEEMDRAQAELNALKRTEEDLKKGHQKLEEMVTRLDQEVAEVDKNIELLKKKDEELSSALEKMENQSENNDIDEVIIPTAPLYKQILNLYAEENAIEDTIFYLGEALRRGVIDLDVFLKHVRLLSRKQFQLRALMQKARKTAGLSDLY
# Assay: qHTS Assay for Iinhibitors of HIV-1 Budding by Blocking the Interaction of PTAP/TSG101; on activity change, negative = inhibition: % of control where 0% means no effect
# Conditions: Fluorescence polarization, FITC-PTAP peptide / Tsg101 binding; activity change, negative = inhibition: at 115 µM (top of the series)
# Summary of the method: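 Compounds were pin-transferred onto Tsg101 binding domain (10 uM final) in HEPES pH 7.5 buffer, then FITC-PTAP peptide was added at 50 nM final. After 20 min at RT, polarization reported peptide displacement across a qHTS concentration series.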
# Potency means the concentration at half of the fitted maximal effect; tags describe the fitted curve by direction and shape or compound fluorescence and quenching.
Compound,Potency,"activity change, negative = inhibition"
Cc1ccc(/C=N/NC(=O)CNC(=O)c2cccs2)cc1,"inconclusive: 100 µM [fluorescent, side channel, partial curve, poor fit]",–
CCOC(=O)C1C(=O)C=C(/C=C/c2ccc(N(C)C)cc2)CC1c1ccccc1 (stereo not drawn),"inconclusive: 56.2 µM [fluorescent, side channel, partial curve, poor fit]",–
COc1ccc(-c2csc(/C(C#N)=C\c3ccc(OC)c([N+](=O)[O-])c3)n2)cc1,"inconclusive: 56.2 µM [fluorescent, side channel, partial curve, poor fit]",–
O=C(N/N=C/c1ccccc1Cl)c1[nH]c2ccc(Br)cc2c1-c1ccccc1,"inconclusive: 56.2 µM [falling, partial curve, poor fit]",–
CCN(CC)c1ccc(/C=c2/sc3nnc(-c4ccccc4C)n3c2=O)cc1,"inconclusive: 7.08 µM [fluorescent, side channel, full curve, poor fit]",–
O=C(O)c1ccccc1-c1c2cc(I)c(=O)c(I)c-2oc2c(I)c(O)c(I)cc12,"inconclusive: 50.1 µM [fluorescent, side channel, partial curve]",–
CCN1CCc2c(sc(NC(=O)c3ccc(S(=O)(=O)N(CC)c4ccccc4)cc3)c2C(N)=O)C1,"inconclusive: 89.1 µM [fluorescent, side channel, partial curve, poor fit]",–
Oc1sc(C=Nc2ccccc2)c2ccccc12,"inconclusive: 50.1 µM [fluorescent, side channel, partial curve, poor fit]",–
Cc1ccc(N/C=C/C(=O)c2sc(-c3ccccc3)nc2C)cc1,"inconclusive: 89.1 µM [fluorescent, side channel, single point]",–
COc1cccc2c1C(=O)c1c(O)c3c(c(O)c1C2=O)CC(O)(C(C)=O)CC3OC1CC(N(C)C)C(O)C(C)O1 (stereo not drawn),"inconclusive: 50.1 µM [fluorescent, side channel, partial curve, poor fit]",–
CN(C)c1ccc2nc3c(=O)[nH]c(=O)nc-3n(CC(O)C(O)C(O)CO)c2c1 (stereo not drawn),"inconclusive: 44.7 µM [fluorescent, side channel, partial curve, poor fit]",–
CCCc1cc(-n2ccnc2)n2c(nc3ccccc32)c1C#N,"inconclusive: 56.2 µM [fluorescent, side channel, partial curve, poor fit]",–
CN(C)S(=O)(=O)c1cccc(NC(=S)NCc2ccco2)c1,inactive,–
CCCCCCOc1ccc(N2C(=O)CC(S/C(N)=N/N=C(\C)c3cccs3)C2=O)cc1 (stereo not drawn),"inconclusive: 31.6 µM [quencher, side channel, partial curve, poor fit]",–
COc1ccc(-c2onc3ccc(Br)cc23)cc1,"inconclusive: 50.1 µM [fluorescent, side channel, partial curve, poor fit]",–
COc1cc(C)ccc1OCCCCNCc1ccccc1,inactive,–
CC(=O)N/N=C/c1cc(C(C)C)cc(/C=N/NC(C)=O)c1O,"inconclusive: 79.4 µM [falling, partial curve, poor fit]",–
Nn1c(SCC(=O)N2CCOCC2)nnc1-c1cccnc1,"inconclusive: 89.1 µM [fluorescent, side channel, partial curve, poor fit]",–
Cc1ccc(N2CC(=O)N(NC(=O)c3sc4nc(C)cc(C)c4c3N)CC2=O)cc1,inactive,–
CS(=O)(=O)c1nc(S(=O)(=O)c2ccc(Cl)cc2)c(N2CCN(CCO)CC2)s1,inactive,–

Compound,Potency,"activity change, negative = inhibition"
CCCn1nc([N+](=O)[O-])c(C(C#N)c2nc3ccccc3s2)c(Cl)c1=O (stereo not drawn),"inconclusive: 31.6 µM [quencher, side channel, partial curve, poor fit]",–
Cn1c(=O)c(NC2CCCCC2)c2c3c(cccc31)C(=O)c1ccccc1-2,"inconclusive: 14.1 µM [fluorescent, side channel, full curve, poor fit]",–
CC(C)(C)n1nnnc1C(c1cccs1)N(Cc1ccccc1)Cc1ccco1 (stereo not drawn),inactive,–
O=C1c2ccccc2-c2onc3ccc(NCc4ccco4)c1c23,"inconclusive: 8.91 µM [fluorescent, side channel, full curve]",–
Cc1cc(O)c(-c2cc(C(=O)Nc3ccc(S(=O)(=O)N4CCOCC4)cc3)[nH]n2)cc1C,"inconclusive: 56.2 µM [quencher, side channel, single point]",–
COc1ccc(Nc2ncnc3ccc(C)cc23)cc1,inactive,–
Clc1ccccc1C1CC(c2ccccc2)=Nc2ccccc2N1 (stereo not drawn),"inconclusive: 100 µM [fluorescent, side channel, partial curve]",–
N=C1CCC(=N)c2c1c(O)c1ccccc1c2O,"inconclusive: 50.1 µM [fluorescent, side channel, partial curve, poor fit]",–
Cc1ccc(NC(=O)CN2C(=O)N/C(=C/c3cc(C)n(-c4ccc(C(=O)O)cc4)c3C)C2=O)cc1,inactive,–
Cc1ccc(C2CC(=O)N3CN(Cc4ccco4)CSC3=C2C#N)cc1 (stereo not drawn),inactive,–
Cc1ccccc1N=Cc1cc2c(cc1O)OC(N)=C(C#N)C2c1ccccc1 (stereo not drawn),"inconclusive: 39.8 µM [fluorescent, side channel, partial curve, poor fit]",–
O=C1/C(=C\c2cc(Cl)c(O)c(Cl)c2)SC(=S)N1Cc1ccccc1,"inconclusive: 14.1 µM [fluorescent, side channel, full curve, poor fit]",–
O=C1Nc2ccccc2CCC1Sc1nnc(-c2ccc(Cl)cc2)s1 (stereo not drawn),inactive,–
O=c1oc2c3c4c(cc2c(C(F)(F)F)c1CCN1CCOCC1)CCCN4CCC3,"inconclusive: 50.1 µM [fluorescent, side channel, partial curve, poor fit]",–
CC(C)Sc1nc2c(c(=O)[nH]1)C(c1cccs1)C1=C(CC(C)(C)CC1=O)N2 (stereo not drawn),inactive,–
CCOc1cc(C2NN=C(c3ccccc3)S2)ccc1OCc1ccccc1Cl (stereo not drawn),inactive,–
COc1cc(NS(=O)(=O)c2cc3c(cc2C)NC(=O)CO3)cc(OC)c1,inactive,–
CCN1/C(=C/C=C/c2oc3ccc4ccccc4c3[n+]2CC)Oc2ccc3ccccc3c21,–,inconclusive: 56.4% [activator]
COc1ccccc1-n1nc(C(=O)O)c2ccccc2c1=O,"inconclusive: 35.5 µM [fluorescent, side channel, full curve]",–
Cc1ccc2c(c1)c1nc3ccccc3nc1n2C,"inconclusive: 56.2 µM [fluorescent, side channel, partial curve, poor fit]",–

Compound,Potency,"activity change, negative = inhibition"
O=C(NCc1ccncc1)c1cccc(S(=O)(=O)NCc2ccccc2)c1,inactive,–
O=C(NCCN1CCCCC1)c1cccc2c1C(=O)c1ccc(N3CCCC3)cc1S2(=O)=O,"inconclusive: 56.2 µM [fluorescent, side channel, partial curve, poor fit]",–
CCN(CC)c1ccc2cc(-c3nc4ccccc4n3C)c(=O)oc2c1,"inconclusive: 2.82 µM [fluorescent, side channel, full curve, poor fit]",–
CS(=O)(=O)N1N=C(c2ccccc2)CC1c1ccc2c(c1)OCO2 (stereo not drawn),"inconclusive: 50.1 µM [fluorescent, partial curve, poor fit]",–
C=CCN1C(=O)/C(=C2/Sc3ccc(OC)cc3N2CC)SC1=S,"inconclusive: 50.1 µM [fluorescent, side channel, partial curve, poor fit]",–
COc1ccc(CN(CCC(c2ccc(F)cc2)C2CCOC(C)(C)C2)C(=O)c2ccco2)cc1 (stereo not drawn),inactive,–
COc1ccc2nc(Nc3nc(C)c(C(C)=O)s3)sc2c1,inactive,–
CCCCN1C(=O)/C(=C/C=C2\Oc3ccccc3N2CC)SC1=S,"inconclusive: 31.6 µM [fluorescent, side channel, partial curve, poor fit]",–
N#Cc1c2c(c(Nc3ccc(F)cc3)n3c1nc1ccccc13)CCCC2,"inconclusive: 89.1 µM [fluorescent, side channel, single point]",–
O=c1oc2c3c4c(cc2c2c1CCC2)OCCN4CCC3,"inconclusive: 79.4 µM [falling, partial curve, poor fit]",–
C[C@H]1CCC2[C@](C)(CO)[C@@H](O)CC[C@]2(C)[C@@]12CCC(CO)(CCO)O2 (stereo partly drawn),inactive,–
CCc1ccc[n+](-c2[nH]c(=O)sc2/C=N/NC([S-])=Nc2ccccc2)c1,"inconclusive: 56.2 µM [fluorescent, side channel, partial curve, poor fit]",–
N/C(Cc1ccc(Cl)cc1Cl)=N\OC(=O)Cc1ccccc1,inactive,–
Oc1ccc2ccccc2c1N=Nc1nccs1,"inconclusive: 79.4 µM [falling, partial curve, poor fit]",–
CCN(CC)C(=O)c1sc2nc(-c3cccs3)cc(-c3cccs3)c2c1N,"inconclusive: 56.2 µM [fluorescent, partial curve, poor fit]",–
CN1/C(=C\C=C2/SC(=S)NC2=O)C(C)(C)c2ccccc21,"inconclusive: 12.6 µM [fluorescent, side channel, full curve, poor fit]",–
CN(/N=C/c1c[nH]c2ccccc12)c1cnn(-c2ccc(F)c(Cl)c2)c(=O)c1Cl,"inconclusive: 56.2 µM [fluorescent, partial curve, poor fit]",–
O=C1c2cccc3c(N4CCCCC4)ccc(c23)C(=O)N1c1ccc(O)cc1,"inconclusive: 56.2 µM [fluorescent, side channel, partial curve, poor fit]",–

# Reference: PubChem BioAssay AID493005 (National Center for Advancing Translational Sciences (NCATS), 2010)
